Results: ChEMBL document CHEMBL4888484, “Replenishing the malaria drug discovery pipeline: Screening and hit evaluation of the MMV Hit Generation Library 1 (HGL1) against asexual blood stage Plasmodium falciparum ,using a nano luciferase reporter read-out” (2022)
Hit rate of the full screen: of about 150,000 compounds, about 540 (0.36%) showed an effect of 50% or more. The list shows a part of the results.

Tested on: Plasmodium falciparum
Assay: Primary screen in NF54 nanoGlo assay, in single point, at 2uM, 72h; a lower Z score goes with more inhibition
Format: functional, Erythrocyte
Conditions: timepoint 72 hour

| Structure (SMILES) | % Inhibition [%] | Z score |
| --- | --- | --- |
| CCc1nccn1CCC(=O)N1CCC[C@@]2(CNC(=O)O2)C1 | -15 | 2.22 |
| O=C(O)[C@H](Cc1ccccc1)n1c[n+]([O-])c(-c2ccccc2)c1-c1ccccc1 | 3 | -0.62 |
| COCC(C)(C)CNC(=O)c1c[nH]c2nc(C)nn2c1=O | -37 | 3.22 |
| Cc1cccc(/N=C(\NCc2c(C)nn(C)c2C)NC(=O)c2ccccc2Cl)c1C | -4 | 0.64 |
| Cc1nc(-c2ncccn2)sc1C(=O)NCC1(c2ccc(F)cc2)CCOCC1 | 11 | -1.06 |
| COc1cc(Cn2cccc(C(=O)N(C)[C@@H](C)C3CC3)c2=O)ccn1 | -3 | 0.25 |
| O=C(NCC1CCCCC1)c1ccc(NS(=O)(=O)c2ccc(Br)cc2)cc1 | -2 | 0.4 |
| O=C(c1ccc(Cl)c(Cl)c1)C1CCN(C(=O)[C@H]2CCn3cncc3C2)CC1 | 34 | -1.08 |
| CCN(CC(C)(C)O)[C@@H](C(N)=O)c1ccccc1 | -6 | 0.62 |
| C[C@](C#N)(NC(=O)Cn1cnc(C#N)n1)C1CC1 | -11 | 1.57 |
| N#Cc1cccnc1N1CCC[C@H](c2[nH]ncc2-c2ccc(F)cc2)C1 | -2 | 0.43 |
| COCCOCCC(=O)NC1CCN(C(C(=O)OC(C)(C)C)c2ccccc2)C1=O (centres undefined) | -2 | 0.21 |
| COc1cnc(C(=O)N2CCOCC2)cc1O | -17 | 2.21 |
| CCN1CCN(C(=O)c2ccc(CN3C(=O)COc4ccc(C(=O)COc5ccccc5)cc43)o2)CC1 | -4 | 0.58 |
| CCC(C)(C)NC(=O)CN1CC2CC1C2NC(=O)COc1cccc(C)c1 (centres undefined) | -2 | 0.46 |
| COc1ccc(-c2csc(-n3nc(-c4ccc(C)cc4)cc3N)n2)cc1 | 1 | -0.11 |
| Cc1ccccc1O[C@H](C(=O)Nc1ccnn1C1CCN(C)CC1)C(C)C | -3 | 0.31 |
| CC(=O)NC1CCN(Cc2cc(C)nc3ccccc23)CC1 | -6 | 0.83 |
| COc1nc(CNC(=O)CCc2ccc(F)c(Cl)c2)nc(N2CCCC2)n1 | -14 | 1.77 |
| CC(C)[C@H](NC(=O)C1CC(=O)N(c2ccccc2)C1)C(=O)NCc1cccnc1 (some centres undefined) | -9 | 1.18 |
| O=C(O)c1ccc(C(=O)N(Cc2cccc(O)c2)CC2CC2)cn1 | -4 | 0.42 |

| Structure (SMILES) | % Inhibition [%] | Z score |
| --- | --- | --- |
| O[C@H](COc1ccc(Cl)cc1CNCc1ccsc1)CN1CCCCCC1 | -10 | 1.36 |
| Cc1nc(CCNC(=O)C(F)(F)C2(O)CCC2)cs1 | -8 | 0.75 |
| Cc1cccc(NC(=O)c2c(NC(=O)c3cccs3)sc3c2CCCC3)c1 | -8 | 1.37 |
| COc1ccnc(CNC(=O)c2cc(C(C)C)oc2C)c1 | -3 | 0.53 |
| CN(Cc1ccc(-c2nc3c(c(=O)[nH]2)CCCC3)cc1)Cc1cc(C2CC2)[nH]n1 | -13 | 1.97 |
| CC(C)(O)CNC(=O)C(=O)Nc1ccc(Br)cc1F | -7 | 1.23 |
| Cc1nn(-c2ccccn2)c(C)c1[C@@H]1C=C[C@@H](NC(=O)C2CCCCC2)C1 | -11 | 1.69 |
| O=C(NCc1ccc(F)cc1)c1ccc2[nH]c3c(c2c1)CCCC3 | -11 | 1.29 |
| NC(=O)Cc1nc(C2(Cn3ccnc3)CC2)n(CC(F)(F)F)n1 | -16 | 1.59 |
| Cc1ccc(C)c(CC(=O)N2C[C@@H]3CC[C@H]2CN(S(C)(=O)=O)C3)c1 | -7 | 0.75 |
| CC(C)CCn1c(=O)n(Cc2cccnc2)c2cc(C(=O)O)ccc21 | -12 | 1.86 |
| Cc1ccccc1OC1(C(=O)O)CCN(Cc2cc(-c3ccccc3)no2)CC1 | -2 | 0.3 |
| COc1nc(NCCn2cnc(C)c2C)ncc1F | 5 | -0.59 |
| CCOCC(=O)NCCN1CCC(c2cccs2)CC1 | -12 | 1.75 |
| C/C(=C\c1ccccc1)C(=O)N1CCN(Cc2cnoc2C)CC1 | -8 | 1.42 |
| FC(F)Oc1ccccc1CN1CCO[C@H]2CCCC[C@@H]21 | -2 | 0.37 |
| Cc1sc2ccccc2c1CN1CCC[C@H](CCC(N)=O)C1 | -3 | 0.64 |
| CC(C)CC[C@H](C)NC(=O)Nc1ccncc1 | 35 | -3.49 |
| Cc1nc(CN(C)c2ncccc2C(=O)N2CCc3ccccc32)cs1 | -5 | 0.93 |
| Cc1nc[nH]c1-c1nccn1CC(F)(F)F | -16 | 2.08 |
| CN1CCc2cc3c(c(OCC(=O)NCc4ccccn4)c2C1=O)OCO3 | -6 | 0.83 |
